{"source": "PubChem BioAssay AID504332", "about": "(National Center for Advancing Translational Sciences (NCATS), 2011)", "note": "In all, about 350,000 compounds went through this assay and about 31,000 (8.9%) were called active. Inconclusive results, whose numbers are uncertain, are shown with a selection of clear calls. Calls come from the whole dose curve; as a rule, active = well fitted inhibition curve with a large enough effect; inconclusive = small, poorly fitted or top-dose-only effect; inactive = no such curve, though single readings can be large or run the other way. Where the call is inconclusive, the potency comes from a doubtful curve fit. % is set by controls: 0 for no effect and ±100 for the full control effect; potency is the fitted concentration of half-maximal effect; tags give direction and shape of the fitted curve."}
{"target": "Histone-lysine N-methyltransferase EHMT2 (Homo sapiens) (UniProt Q96KQ7)", "sequence (Q96KQ7 whole entry, looked up)": "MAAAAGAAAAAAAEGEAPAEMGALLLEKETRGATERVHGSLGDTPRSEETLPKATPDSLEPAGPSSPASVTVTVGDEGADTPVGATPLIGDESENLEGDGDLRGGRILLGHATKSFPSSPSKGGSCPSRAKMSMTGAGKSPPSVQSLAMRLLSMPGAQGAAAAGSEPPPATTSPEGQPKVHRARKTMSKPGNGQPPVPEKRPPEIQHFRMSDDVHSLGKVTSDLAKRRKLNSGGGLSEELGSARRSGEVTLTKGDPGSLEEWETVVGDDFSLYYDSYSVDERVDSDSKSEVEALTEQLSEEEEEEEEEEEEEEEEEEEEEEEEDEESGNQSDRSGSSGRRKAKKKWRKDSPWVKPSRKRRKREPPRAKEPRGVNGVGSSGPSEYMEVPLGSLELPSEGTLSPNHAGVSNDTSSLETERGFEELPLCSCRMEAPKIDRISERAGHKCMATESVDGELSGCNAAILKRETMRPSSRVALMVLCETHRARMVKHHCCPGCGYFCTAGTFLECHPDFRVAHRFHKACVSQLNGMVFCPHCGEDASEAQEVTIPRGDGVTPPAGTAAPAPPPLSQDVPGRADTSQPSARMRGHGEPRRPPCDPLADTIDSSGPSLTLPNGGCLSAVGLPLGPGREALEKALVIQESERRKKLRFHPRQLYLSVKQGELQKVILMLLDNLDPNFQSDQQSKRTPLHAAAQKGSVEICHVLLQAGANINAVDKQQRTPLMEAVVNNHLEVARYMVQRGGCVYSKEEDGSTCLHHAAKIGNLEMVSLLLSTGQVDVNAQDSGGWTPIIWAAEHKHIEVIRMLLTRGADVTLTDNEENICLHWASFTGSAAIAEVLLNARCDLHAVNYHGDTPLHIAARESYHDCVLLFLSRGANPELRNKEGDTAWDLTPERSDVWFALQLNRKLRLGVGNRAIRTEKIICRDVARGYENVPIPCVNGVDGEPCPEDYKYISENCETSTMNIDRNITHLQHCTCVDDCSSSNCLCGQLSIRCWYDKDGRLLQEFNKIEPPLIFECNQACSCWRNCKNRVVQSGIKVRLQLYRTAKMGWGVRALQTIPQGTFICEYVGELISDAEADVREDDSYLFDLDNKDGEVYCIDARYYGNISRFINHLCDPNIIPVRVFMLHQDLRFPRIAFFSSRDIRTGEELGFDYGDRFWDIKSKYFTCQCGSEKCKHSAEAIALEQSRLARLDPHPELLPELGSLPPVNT", "assay": "qHTS Assay for Inhibitors of Histone Lysine Methyltransferase G9a; note: nearly all actives have a fitted effect of over 75% in size", "details": "G9a H3K9 monomethylation, AlphaScreen, 2 h; activity, negative = inhibition: at 59 µM (top of the series) unless noted", "how_it_was_run": "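Step 1: enzyme (final 20 nM) with compound, 15 min RT. Step 2: substrate peptide 500 nM and SAM 20 uM, 2 h RT. Step 3: anti-H3K9me1 antibody and AlphaScreen beads, 10 min, then plate read.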"}
{"smiles": "CN(C)c1ccc(C(=O)NC2CCCc3ccccc32)cc1", "note": "(stereo not drawn)", "activity, negative = inhibition": "inactive: 23.8% [at 12.7 µM]"}
{"smiles": "O=C(CCNC(=O)C1CCN(S(=O)(=O)c2ccc(F)cc2)CC1)NCc1ccccc1", "activity, negative = inhibition": "inactive: 21.6% [at 102 µM]"}
{"smiles": "COCCCNC(=S)NC(=O)c1ccc([N+](=O)[O-])cc1", "activity, negative = inhibition": "inactive: -14.4%"}
{"smiles": "Cc1ccc(NC(=O)CSc2nc(NS(=O)(=O)c3ccccc3)cc(=O)[nH]2)cc1", "Potency": "inconclusive: 89.1 µM [inhibitor, single point]"}
{"smiles": "COc1ccc(-c2csc(N(CCCN(C)C)C(=O)c3cccs3)n2)cc1", "Potency": "inconclusive: 79.4 µM [inhibitor, single point]"}
{"smiles": "CC(=O)Oc1ccc2occ(C(=O)c3cccs3)c2c1", "activity, negative = inhibition": "inactive: -9.13%"}
{"smiles": "O=C1C(Nc2ccccc2)=CC(=O)c2ncccc21", "Potency": "inconclusive: 20 µM [inhibitor, single point]"}
{"smiles": "CCCc1cc(=O)[nH]c(SCC(=O)c2c(N)n(C3CC3)c(=O)[nH]c2=O)n1", "activity, negative = inhibition": "inactive: -1.44%"}
{"smiles": "CCCC(c1nnnn1C(C)(C)CC)N1CCN(C2CCCC2)CC1", "note": "(stereo not drawn)", "Potency": "active: 89.1 µM"}
{"smiles": "COc1cccc(OC)c1OCCN(C)C", "Potency": "inconclusive: 20 µM [inhibitor, partial curve, poor fit]"}
{"smiles": "Cn1cc(CN2CCN(c3ccccc3)CC2)c2ccccc21", "Potency": "inconclusive: 50.1 µM [inhibitor, partial curve]"}
{"smiles": "CCN(CC)S(=O)(=O)c1ccc(N2CCOCC2)c(NC(=O)Cc2ccccc2)c1", "activity, negative = inhibition": "inactive: 21.6% [at 102 µM]"}
{"smiles": "CCOc1ccc2nc3sc(C(=O)N4CCN(C)CC4)c(N)c3cc2c1", "Potency": "inconclusive: 3.55 µM [inhibitor, partial curve, poor fit]"}
{"smiles": "CCCCNC(=O)CCNC(=O)c1ccc(C(C)(C)C)cc1", "activity, negative = inhibition": "inactive: -0.948% [at 102 µM]"}
{"smiles": "CCCCN(CC)Cc1ccc(CNC(=S)Nc2cccc(F)c2)o1", "Potency": "inconclusive: 50.1 µM [inhibitor, partial curve, poor fit]"}
{"smiles": "CCOC(=O)C1=C(CN(CC)Cc2ccccc2)NC(=O)NC1c1ccc(OC(C)C)cc1", "note": "(stereo not drawn)", "Potency": "inconclusive: 14.1 µM [inhibitor, partial curve]"}
{"smiles": "CC1(C)CC(=O)C(/C=N/c2ccccn2)=C(O)C1", "Potency": "inconclusive: 89.1 µM [inhibitor, single point]"}
{"smiles": "Cn1c(SCC(=O)N2CCN(c3ccccc3)CC2)nnc1-c1c[nH]c2ccccc12", "Potency": "inconclusive: 100 µM [inhibitor, single point]"}
{"smiles": "Cc1ccc2c(c1)c1c(n2CC(O)CN2C(=O)CNC2=O)C(=O)CCC1", "note": "(stereo not drawn)", "Potency": "inconclusive: 89.1 µM [inhibitor, single point]"}
{"smiles": "Cc1ccc(CSc2ccc(S(=O)(=O)N3CCCC3)cn2)cc1", "activity, negative = inhibition": "inactive: 7.08% [at 12.7 µM]"}
{"smiles": "O=C(CCCCn1c(=S)[nH]c2ccsc2c1=O)NCc1ccc2c(c1)OCO2", "Potency": "active: 10 µM"}
{"smiles": "CCOc1ccc(C(=O)N2CCN(CCc3ccccn3)CC2)cc1", "Potency": "inconclusive: 22.4 µM [inhibitor, partial curve, poor fit]"}
{"smiles": "O=C(COC(=O)CSc1ccc([N+](=O)[O-])cc1)NCc1ccco1", "Potency": "inconclusive: 56.2 µM [inhibitor, partial curve, poor fit]"}
{"smiles": "O=C(NCCCN1CCc2ccccc2C1)Nc1ccc(Cl)cc1", "Potency": "active: 70.8 µM"}
{"smiles": "N#Cc1ccc(N2CCOCC2)c([N+](=O)[O-])c1", "Potency": "inconclusive: 3.98 µM [inhibitor, partial curve, poor fit]"}
{"smiles": "COC(=O)C1C2C=CC3(CN(c4cccc(C)c4)C(=O)C13)O2", "note": "(stereo not drawn)", "Potency": "inconclusive: 56.2 µM [inhibitor, partial curve, poor fit]"}
{"smiles": "Cc1ccc(-c2nc(S(=O)(=O)c3ccc(C)cc3)c(N3CCCCCC3)o2)cc1", "Potency": "inconclusive: 3.55 µM [inhibitor, full curve, poor fit]"}
{"smiles": "Oc1c(N=NC(=S)Nc2ccccc2F)c2ccccc2n1Cc1ccccc1", "Potency": "active: 17.8 µM"}
{"smiles": "CC1CCCC(C)N1C(=O)c1ccc2c(c1)S(=O)(=O)c1ccccc1C2=O", "note": "(stereo not drawn)", "Potency": "inconclusive: 89.1 µM [inhibitor, single point]"}
{"smiles": "COc1ccccc1OCCCCOc1ccccc1C(C)=O", "Potency": "inconclusive: 1.58 µM [inhibitor, full curve]"}
{"smiles": "O=C(OCc1ccc([N+](=O)[O-])cc1)c1cnc(Cl)c(Cl)c1", "activity, negative = inhibition": "inactive: 5.7% [at 102 µM]"}
{"smiles": "Cc1ccccc1CSc1nc2cccnc2n1Cc1ccc(C(=O)NC2CC2)cc1", "Potency": "inconclusive: 39.8 µM [inhibitor, partial curve, poor fit]"}
{"smiles": "O=[N+]([O-])c1cc(-c2n(-c3ccccn3)c3ccccc3[n+]2-c2ccccn2)ccc1Cl", "Potency": "active: 50.1 µM"}
{"smiles": "COc1cc(/C=N/NC(=O)c2ccc(Cl)c(S(N)(=O)=O)c2)ccc1OCC(N)=O", "Potency": "inconclusive: 39.8 µM [inhibitor, partial curve, poor fit]"}
{"smiles": "CCOC(=O)C1(CC2CCCCO2)CCN(S(=O)(=O)c2ccc(C)s2)CC1", "note": "(stereo not drawn)", "Potency": "inconclusive: 89.1 µM [inhibitor, partial curve, poor fit]"}
{"smiles": "O=C(Oc1csc(=S)n1C(=O)c1ccccc1)c1ccccc1", "Potency": "active: 1 µM"}
{"smiles": "CNC(=O)c1nc[nH]c1C(=O)NC", "Potency": "inconclusive: 39.8 µM [inhibitor, single point]"}
{"smiles": "COC(=O)N/C(C)=C1/NC(=O)c2ccccc2C(c2ccccc2)N1", "note": "(stereo not drawn)", "Potency": "inconclusive: 25.1 µM [inhibitor, partial curve, poor fit]"}
{"smiles": "Cc1ccc(-n2nc3c(c2NC(=O)c2cc4ccccc4o2)CS(=O)(=O)C3)cc1", "activity, negative = inhibition": "inactive: 36.8% [at 102 µM]"}
{"smiles": "O=C(c1ccco1)N1CCN(C(c2ccccc2Cl)c2nnnn2Cc2cccs2)CC1", "note": "(stereo not drawn)", "Potency": "inconclusive: 56.2 µM [inhibitor, partial curve, poor fit]"}
{"smiles": "CCOC(=O)c1cnc(-n2[nH]c(C)cc2=O)[nH]c1=O", "activity, negative = inhibition": "inconclusive: -94% [inhibitor] [at 12.7 µM]"}
{"smiles": "CN=C1NN=C(c2cc(C)n(-c3c(C)n(C)n(-c4ccccc4)c3=O)c2C)CS1", "Potency": "inconclusive: 11.2 µM [inhibitor, partial curve, poor fit]"}
{"smiles": "Cc1ccc(-n2c(Cl)c(Cl)[nH]c(=O)c2=O)cc1", "Potency": "inconclusive: 11.2 µM [inhibitor, partial curve, poor fit]"}
